Test results from patent publication US20240341309A1, “HERBICIDAL COMPOSITIONS” (SYNGENTA CROP PROTECTION AG, priority 2021, published 2024).

Columns and labels:
[1] = system: Sorghum halepense (SORHA); test: Post-emergence efficacy against Sorghum halepense; type: in vivo; conditions: 100=total damage to plant, 0=no damage
[2] = system: Amaranthus tuberculatus (AMATA); test: Post-emergence efficacy against Amaranthus tuberculatus; conditions: 20DAA, 100=total damage to plant, 0=no damage
[3] = system: Echinochloa crus-galli (ECHCG); test: Post-emergence efficacy against Echinochloa crus-galli; type: in vivo; conditions: 100=total damage to plant, 0=no damage
[4] = system: Amaranthus palmeri (AMAPA); test: Post-emergence efficacy against Amaranthus palmeri; type: in vivo; conditions: 18DAA, rate 250 g/ha, 100=total damage to plant, 0=no damage

How did the Observed ([1]; 17DAA, rate 250 g/ha) turn out when O=C(O)COc1ccc(Cl)cc1Cl [Formula B1, 2,4-D, reference compound] was run?
Its Observed is 65.

With COc1c(Cl)ccc(Cl)c1C(=O)O [Formula B3g, dicamba, reference compound] as the compound, how does the Observed ([2]; rate 250 g/ha) read?
Its Observed is 90.

How did the Observed ([3]; 15DAA, rate 4 g/ha) turn out when COc1c(Cl)ccc(-c2nc(C(=O)OCc3ccccc3)c(Cl)c(N)c2F)c1F [Formula B4a, florpyrauxifen-benzyl, reference compound] was run?
The Observed was 58.

How did the Observed [4] turn out when Nc1c(Cl)c(F)nc(OCC(=O)O)c1Cl [Formula B5, fluroxypyr] was run?
Its Observed is 79.

How did the Observed ([1]; 18DAA, rate 250 g/ha) turn out when COC(=O)c1nc(-c2ccc(Cl)c(OC)c2F)cc(N)c1Cl [Formula B6a, halauxifen-methyl, reference compound] was run?
Its Observed is 41.

Which Observed ([3]; 18DAA, rate 250 g/ha) does the source give for O=C(O)COc1nc(Cl)c(Cl)cc1Cl [Formula B7, triclopyr, reference compound] here?
Its Observed is 19.

Which Observed ([1]; 17DAA, rate 12.5 g/ha) does the source give for CC#Cc1ccc(C2=C(OC(=O)OC)C3CCC(C3)C2=O)c(OC)c1 (centres unmarked) [Ic] here?
Its Observed is 73.

What about the Observed ([1]; 17DAA, rate 25 g/ha) of the same compound?
Its Observed is 87.

What about the Observed ([1]; 17DAA, rate 50 g/ha) of the same compound?
The Observed was 93.

And the Observed ([1]; 17DAA, rate 100 g/ha)?
The Observed was 98.

And the Observed ([1]; 18DAA, rate 12.5 g/ha)?
Its Observed is 50.

What about the Observed ([1]; 18DAA, rate 25 g/ha) of the same compound?
Its Observed is 87.

And the Observed ([2]; rate 12.5 g/ha)?
Its Observed is 5.

What about the Observed ([2]; rate 25 g/ha) of the same compound?
Its Observed is 5.

And the Observed ([2]; rate 50 g/ha)?
Its Observed is 5.

And the Observed ([2]; rate 100 g/ha)?
Its Observed is 5.

What about the Observed ([3]; 15DAA, rate 12.5 g/ha) of the same compound?
Its Observed is 66.

And the Observed ([3]; 18DAA, rate 12.5 g/ha)?
The Observed was 44.

What about the Observed ([3]; 18DAA, rate 25 g/ha) of the same compound?
The Observed was 65.

And the Observed ([3]; 18DAA, rate 50 g/ha)?
The Observed was 91.
